Assay results reported in patent publication US7410635B2 (priority 2003, dated 2008).

Conditions: heating lorazepam to greater than 200 degrees Celsius

O=C1Nc2ccc(Cl)cc2C(c2ccccc2Cl)=NC1O (stereo not shown) [Lorazepam, 7-chloro-5-(2-chlorophenyl)-3-hydroxy-1,3-dihydro-2H-1,4-benzodiazepin-2-one]
thermal degradation on heating: rearrangement and a loss of water to produce a carboxaldehyde
